Structures are written as SMILES. The list shows a part of the results. Shown are side measurements of this screen, not its main read-out; they come without a call. Most of these compounds were active or inconclusive in the main read-out, so they are no random draw. Words in brackets tell the shape of the fitted curve; partial curves, single points and poor fits give uncertain potencies.
Tags describe the fitted curve by direction and shape.

The first assay is described as follows: Cell-based coincidence reporter assay to measure PMP22 gene transcription in S16 Pmp22-F2sN cells - Confirmatory screen (AID 1508646). Conditions: S16 Schwann cells Pmp22-F2sN, dual luciferase, 24 h; measured here: FLuc reporter channel. From the text:
Assay Provider: Jim Inglese Ph.D. National Center for Advancing Translational Science, National Institutes of Health, Rockville, MD CMT is a heterogeneous group of neurological disorders that affect approximately 1 in 2,500 people. In particular, the most common form of CMT, CMT1A is genetically linked to the duplication of the PMP22 gene which leads to Schwann cell overexpression, thus manifesting itself as a typical case of dose-sensitive diseases. To identify small molecule compounds that can mediate the expression of PMP22 we developed a phenotypic assay screening strategy by utilizing genome editing techniques to construct Schwann cell lines containing novel reporter technology to monitor the transcriptional or translational regulation of PMP22. For high sensitivity we use a bioluminescent reporter system embedded in the 3' UTR of the PMP22 gene (S16(c9) Pmp22-F2sN) to identify compounds that inhibit gene expression. […] We can further discriminate the effect of all transcriptionally active molecules on PMP22 translation or stability with an assay that incorporates a short NLuc peptide (HiBiT) at the C-terminus of expressed PMP22 (S16(f8) PMP22-HiBiT) allowing alpha complementation and luminescence detection of membrane-associated PMP22 protein. These assays were screened against the NCATS Sytravon Library Collection. Miniaturization of these assays to 1536-well plate format for quantitative high throughput screening (qHTS) yielded rich data sets immediately from the qHTS assay (S16(c9) Pmp22-F2sN), when compared with data from a cell viability assay (Cell TiterGlo) to identify compounds that decreased the output signals through cellular toxicity to streamline the selection process of actives for subsequent characterization using the HiBiT assay (S16(f8) PMP22-HiBiT).
Cell-based coincidence reporter assay to measure PMP22 gene transcription in S16 Pmp22-F2sN cells PROTOCOL TABLE (format as described by Inglese J, Shamu CE and Guy RK. 2007) SEQUENCE No. (e.g., 1, 2, 3, etc.); PARAMETER (e.g., Cells, Incubation, Reagent, etc.); VALUE and DESCRIPTION. 1. Cells. Add 500-1,000 cells in 4 uL in growth media (DMEM High Glucose, No Phenol Red media + 10% heat-inactivated FBS + 1% Pen/Strep supplemented media) per well into Greiner 1536-well white/solid bottom high base, TC-treated plates. 2. Compounds. Library compounds and controls added at 23nL per well, transferred by Pin Tool. 3. Incubation. Incubate plates at 37C, 5% CO2, 95% RH for 24 h. 4. Reagent. Add 3.5uL Nano-Glo Dual-Luciferase Reporter Assay System reagent 1: Lysis and FLuc reagent per well of Greiner 1536-well plates. 5. Incubation. Incubate plates at room temperature for 10 min., protect from light. 6. Detector. FLuc luminescence measured using CCD-based camera (Viewlux). 7. Reagent. Add 3.5uL Nano-Glo Dual-Luciferase Reporter Assay System reagent 2: Stop&Glo reagent per well of Greiner 1536-well plates. 8. Incubation. Incubate plates at room temperature for 10 min., protect from light. 9. Detector. NLuc luminescence measured using CCD-based camera (Viewlux). NOTES (numbers refer to Sequence numbers above; values are from representative experiments) 6. Luminescence Read #1 (FLuc): Clear filter; Exposure = 10 sec, Gain = High, Speed = Slow, Binning = 2X 9. Luminescence Read #2 (NLuc): Clear filter; Exposure = 1 sec, Gain = High, Speed = Slow, Binning = 2X REFERENCES: 1. Inglese J, Shamu CE and Guy RK, Reporting data from high throughput screening of small molecule libraries, Nature Chemical Biology, 2007, 3(8): 438-441. doi.org/10.1038/nchembio0807-438 2. Yasgar A, Shinn P, Jadhav A, Auld DS, Michael S, Zheng W, Austin CP, Inglese J and Simeonov A, Compound Management for Quantitative High-Throughput Screening. J. Assoc. Lab. Auto., 2008, 13: 79-89. doi: 10.1016/j.jala.2007.12.004
By AC50 is commonly meant the concentration giving half of the maximal activity seen. For the molecule `Cc1ccc(NC(=O)Cn2c(=O)n(-c3ccc(C)cc3)c(=O)c3ccc(C(=O)NCc4ccccc4Cl)cc32)cc1`, the AC50 is 4.85 µM [falling, full curve].

As to `COc1ccc(NC(=O)Cn2c(=O)n(-c3cccc(C)c3)c(=O)c3c2c2cc(C)ccc2n3C)cc1Cl`, the AC50 is 19.3 µM [falling, partial curve].

In the case of `CCc1ccccc1NC(=O)CSc1ncc(S(=O)(=O)c2ccc(C(C)C)cc2)c(N)n1`, the half-maximal activity concentration (AC50) was 43.2 µM [falling, partial curve, poor fit].

For the molecule `CC(=O)N1CCCc2cc(S(=O)(=O)N3CCCC(C(=O)N4CCN(c5cccc(Cl)c5)CC4)C3)ccc21` (stereo unspecified), the AC50 is 24.3 µM [falling, partial curve].

`O=C(CCS(=O)(=O)c1nc(-c2cccs2)cc(C(F)(F)F)n1)Nc1ccc(F)c(Cl)c1`: the AC50 was 13.7 µM [falling, full curve].

Turning to `COc1ccc(-c2onc(C)c2C)cc1S(=O)(=O)Nc1cc(Cl)ccc1C`, the AC50 is 9.68 µM [falling, full curve, poor fit].

In the case of `COC(=O)COc1ccc(-c2nnc(Nc3ccc(O)cc3)c3ccccc23)cc1`, the concentration at half-maximal activity (AC50) was 21.7 µM [falling, partial curve].

As to `COc1ccccc1NC(=O)CSc1nc2nccnc2c(=O)n1CCc1c[nH]c2ccccc12`, the AC50 was 19.3 µM [falling, partial curve].

For the molecule `O=C(NC1CCN(Cc2ccccc2)CC1)c1ccc(Cn2c(=O)c3ccccc3n(Cc3ccc(Cl)cc3)c2=O)cc1`, the concentration at half-maximal activity (AC50) was 9.68 µM [falling, full curve].

As for `COc1cc(NS(=O)(=O)c2cc(Br)cc3c2N(C(=O)C2CC2)CC3)cc(OC)c1`, the AC50 was 17.2 µM [falling, partial curve].

For the molecule `Cc1cccc(N2CCN(S(=O)(=O)c3ccc4c(c3)CCCN4C(=O)C3CCC3)CC2)c1C`, the AC50 is 21.7 µM [falling, partial curve].

On to `CCCCOc1ccc(C(C)NC(=O)c2cccc(Nc3nc4ccccc4n4nnnc34)c2)cc1` (stereo unspecified), for which the concentration at half-maximal activity (AC50) was 9.68 µM [falling, full curve].

For the molecule `CCCCCn1c(=N)n(CC(O)COc2cccc(C)c2)c2ccccc21` (stereo unspecified), the concentration at half-maximal activity (AC50) was 15.3 µM [falling, full curve].

Take `Cc1ccc(NC(=O)/C(C#N)=C/c2cc(C)n(-c3ccc(Br)cc3)c2C)cc1C`: the half-maximal activity concentration (AC50) is 24.3 µM [falling, partial curve, poor fit].

With `Fc1ccc(Nc2c3c(nc4ccccc24)CCC3)cc1`, the AC50 is 19.3 µM [falling, partial curve].

Turning to `Cc1ccc(-n2nc3c(N4CCC(C(=O)NCCC(C)C)CC4)nnc(C)c3c2C)cc1`, the half-maximal activity concentration (AC50) is 10.9 µM [falling, full curve].

As for `COc1ccc(NS(=O)(=O)c2ccc3c(c2)CC(C)N3C(=O)C2CCC2)cc1OC` (stereo unspecified), the AC50 is 4.32 µM [falling, full curve].

As for `Cn1c(=O)c2c(nc(NCc3ccccc3)n2Cc2ccc(Cl)c(Cl)c2)n(C)c1=O`, the AC50 is 13.7 µM [falling, partial curve].

`COc1ccc(CNC(=O)C2CCCN(c3nnc(C)c4c(C)n(-c5ccc(C)cc5)nc34)C2)cc1` (stereo unspecified): the AC50 is 19.3 µM [falling, partial curve, poor fit].

Staying with this assay, now noted: S16 Schwann cells Pmp22-F2sN, dual luciferase, 24 h; measured here: NLuc reporter channel.
As for `Cc1ccc(NC(=O)Cn2c(=O)n(-c3ccc(C)cc3)c(=O)c3ccc(C(=O)NCc4ccccc4Cl)cc32)cc1`, the AC50 was 5.44 µM [falling, full curve].

On to `COc1ccc(NC(=O)Cn2c(=O)n(-c3cccc(C)c3)c(=O)c3c2c2cc(C)ccc2n3C)cc1Cl`, for which the AC50 is 7.69 µM [falling, partial curve, poor fit].

As for `CC(Oc1ccccc1)C(=O)Nc1ccccc1C(=O)OCc1cc(=O)n2nc(C3CC3)sc2n1` (stereo unspecified), the AC50 is 19.3 µM [falling, partial curve, poor fit].

Regarding `CCc1ccccc1NC(=O)CSc1ncc(S(=O)(=O)c2ccc(C(C)C)cc2)c(N)n1`, the AC50 was 38.5 µM [falling, single point].

Regarding `CC(=O)N1CCCc2cc(S(=O)(=O)N3CCCC(C(=O)N4CCN(c5cccc(Cl)c5)CC4)C3)ccc21` (stereo unspecified), the AC50 is 24.3 µM [falling, partial curve].

As to `O=C(CCS(=O)(=O)c1nc(-c2cccs2)cc(C(F)(F)F)n1)Nc1ccc(F)c(Cl)c1`, the AC50 is 12.2 µM [falling, full curve].

With `COc1ccc(-c2onc(C)c2C)cc1S(=O)(=O)Nc1cc(Cl)ccc1C`, the half-maximal activity concentration (AC50) is 10.9 µM [falling, full curve, poor fit].

On to `COc1ccc(C)cc1NC(=O)c1cc(S(=O)(=O)N2CCN(c3cccc(C)c3C)CC2)ccc1F`, for which the AC50 is 7.69 µM [falling, partial curve].

As for `COC(=O)COc1ccc(-c2nnc(Nc3ccc(O)cc3)c3ccccc23)cc1`, the AC50 is 21.7 µM [falling, partial curve].

On to `COc1ccccc1NC(=O)CSc1nc2nccnc2c(=O)n1CCc1c[nH]c2ccccc12`, for which the AC50 is 8.62 µM [falling, full curve, poor fit].

For the molecule `COc1ccc(NC(=O)Cn2c(=O)n(Cc3ccccc3Cl)c(=O)c3cc(OC)c(OC)cc32)cc1OC`, the AC50 is 9.68 µM [falling, single point].

Consider `O=C(NC1CCN(Cc2ccccc2)CC1)c1ccc(Cn2c(=O)c3ccccc3n(Cc3ccc(Cl)cc3)c2=O)cc1`, for which the AC50 was 12.2 µM [falling, full curve].

For the molecule `COc1cc(NS(=O)(=O)c2cc(Br)cc3c2N(C(=O)C2CC2)CC3)cc(OC)c1`, the AC50 is 19.3 µM [falling, partial curve].

With `Cc1cccc(N2CCN(S(=O)(=O)c3ccc4c(c3)CCCN4C(=O)C3CCC3)CC2)c1C`, the AC50 is 13.7 µM [falling, partial curve, poor fit].

In the case of `CCCCOc1ccc(C(C)NC(=O)c2cccc(Nc3nc4ccccc4n4nnnc34)c2)cc1` (stereo unspecified), the AC50 is 10.9 µM [falling, full curve].

Take `CCCCCn1c(=N)n(CC(O)COc2cccc(C)c2)c2ccccc21` (stereo unspecified): the AC50 is 17.2 µM [falling, partial curve].

In the case of `Cc1ccc(NC(=O)/C(C#N)=C/c2cc(C)n(-c3ccc(Br)cc3)c2C)cc1C`, the AC50 is 21.7 µM [falling, partial curve].

Turning to `Fc1ccc(Nc2c3c(nc4ccccc24)CCC3)cc1`, the AC50 is 17.2 µM [falling, partial curve].

As for `Cc1ccc(-n2nc3c(N4CCC(C(=O)NCCC(C)C)CC4)nnc(C)c3c2C)cc1`, the AC50 is 21.7 µM [falling, partial curve].

On to `COc1ccc(NS(=O)(=O)c2ccc3c(c2)CC(C)N3C(=O)C2CCC2)cc1OC` (stereo unspecified), for which the half-maximal activity concentration (AC50) is 1.93 µM [falling, full curve].

As to `Cn1c(=O)c2c(nc(NCc3ccccc3)n2Cc2ccc(Cl)c(Cl)c2)n(C)c1=O`, the AC50 is 24.3 µM [falling, partial curve].

`COc1ccc(CNC(=O)C2CCCN(c3nnc(C)c4c(C)n(-c5ccc(C)cc5)nc34)C2)cc1` (stereo unspecified): the AC50 was 30.6 µM [falling, single point].

Values taken from PubChem BioAssay (NCATS).
